Data from PubChem BioAssay AID504339 (National Center for Advancing Translational Sciences (NCATS), 2011).
The whole screen tested about 390,000 compounds, of which about 17,000 (4.4%) were called active. Inconclusive means that the source gave no clear call. Such entries were picked first, then a sample of the others. Calls follow the shape of the dose curve; as a rule, active = well fitted inhibition curve with a large enough effect; inconclusive = small, poorly fitted or top-dose-only effect; inactive = no such curve, though single readings can be large or run the other way. Potencies beside an inconclusive call are fits to weak or partial responses and may not hold up.

Each molecule was assayed against Lysine-specific demethylase 4A (Homo sapiens) (UniProt O75164) (assay: qHTS Assay for Inhibitors of JMJD2A-Tudor Domain). Conditions: AlphaScreen JMJD2A-Tudor / H3K4me3 peptide binding; series mostly up to 114 µM.
Also: nearly all actives have a fitted effect of over 50% in size.
Potency is read from the fitted curve at half-maximal effect; tags tell the direction and shape of the fitted curve.

UniProt O75164, sequence (O75164 whole entry, looked up, the tested form may be a part): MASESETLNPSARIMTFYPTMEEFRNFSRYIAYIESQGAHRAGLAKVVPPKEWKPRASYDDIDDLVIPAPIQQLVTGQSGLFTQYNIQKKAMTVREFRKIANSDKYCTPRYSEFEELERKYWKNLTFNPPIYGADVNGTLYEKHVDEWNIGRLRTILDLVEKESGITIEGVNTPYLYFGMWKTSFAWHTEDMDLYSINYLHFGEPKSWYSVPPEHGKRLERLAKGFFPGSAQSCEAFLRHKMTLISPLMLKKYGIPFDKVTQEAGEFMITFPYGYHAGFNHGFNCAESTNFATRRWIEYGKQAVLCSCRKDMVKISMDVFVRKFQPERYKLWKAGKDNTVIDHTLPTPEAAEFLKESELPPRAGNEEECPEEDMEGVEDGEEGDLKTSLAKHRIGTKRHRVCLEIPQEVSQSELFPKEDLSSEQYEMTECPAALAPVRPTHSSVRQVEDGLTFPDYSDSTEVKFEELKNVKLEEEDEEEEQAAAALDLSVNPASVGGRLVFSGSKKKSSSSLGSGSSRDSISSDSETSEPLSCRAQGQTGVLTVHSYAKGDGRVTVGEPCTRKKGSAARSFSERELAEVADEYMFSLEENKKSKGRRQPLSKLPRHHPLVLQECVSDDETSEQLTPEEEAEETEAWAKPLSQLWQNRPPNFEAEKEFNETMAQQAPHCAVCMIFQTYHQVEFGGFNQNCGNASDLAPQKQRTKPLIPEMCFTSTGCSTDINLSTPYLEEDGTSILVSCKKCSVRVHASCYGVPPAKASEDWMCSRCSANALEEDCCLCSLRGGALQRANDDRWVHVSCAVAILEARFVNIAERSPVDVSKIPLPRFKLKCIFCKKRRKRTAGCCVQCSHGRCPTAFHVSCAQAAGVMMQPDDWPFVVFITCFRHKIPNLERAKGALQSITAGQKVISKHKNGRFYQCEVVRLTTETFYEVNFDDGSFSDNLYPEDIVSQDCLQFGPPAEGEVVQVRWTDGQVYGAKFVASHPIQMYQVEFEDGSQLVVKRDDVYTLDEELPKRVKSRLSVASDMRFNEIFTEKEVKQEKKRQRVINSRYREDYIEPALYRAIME

Potency, inconclusive:
COC(=O)c1sccc1NC(=S)Nc1cc(C)ccc1OC 89.1 µM [inhibitor, partial curve], CN1CCN(Cc2nc3ccccc3c(=O)n2Cc2nc(-c3ccc4ccccc4c3)cs2)CC1 39.8 µM [inhibitor, single point], CNC(=S)N(CCc1c(C)[nH]c2ccccc12)Cc1cc(OC)c(OC)c(OC)c1 89.1 µM [inhibitor, partial curve], CCOC(=O)c1cc(S(=O)(=O)NCc2ccc(OC)cc2)[nH]n1 56.2 µM [inhibitor, partial curve], Cc1[nH]c2ccccc2c1C(=O)C(=O)N1CCN(c2ccccc2Cl)CC1 70.8 µM [inhibitor, partial curve], Cc1ccc(NC(=O)CC2S/C(=N/N=C3/NC(=O)CS3)NC2=O)cc1 (stereo not given) 22.4 µM [inhibitor, full curve], COc1ccc(NC(=S)N(CCCN2CCCC2)Cc2cccn2Cc2ccc(Cl)cc2)cc1Cl 39.8 µM [inhibitor, partial curve], Cc1ccc(OCC(=O)N(Cc2ccc(N(C)C)cc2)C2CCS(=O)(=O)C2)cc1 (stereo not given) 79.4 µM [inhibitor, partial curve], C/C(=N\NC(=O)CSCc1ccccc1Cl)c1cc(O)ccc1O 50.1 µM [inhibitor, partial curve], CCOC(=O)C1=C(C)N=c2s/c(=C\c3cccc(OCC(=O)O)c3)c(=O)n2C1c1ccccc1OC (stereo not given) 39.8 µM [inhibitor, partial curve], C/C(=N\Nc1nc(-c2cc(C)ccc2C)cs1)c1cc2c(ccc3ccccc32)oc1=O 25.1 µM [inhibitor, single point], O=C(NCC1CCCO1)C(c1cccs1)N(C(=O)c1ccc(-c2ccccc2)[nH]1)C1CCCC1 (stereo not given) 56.2 µM [inhibitor, single point], CCN(CC)c1cc(Cl)c2nonc2c1N 50.1 µM [inhibitor, partial curve], COc1cccc(/C=C2\SC(=S)N(CC3CCCO3)C2=O)c1 (stereo not given) 15.8 µM [inhibitor, full curve], COc1ccc(C(=O)Oc2ccc(C(=S)N3CCOCC3)cc2)cc1 79.4 µM [inhibitor, partial curve], COc1ccc(Cc2nc3ccc(C(=O)N(C)Cc4nccs4)cc3o2)cc1OC 39.8 µM [inhibitor, single point], Cc1cccc(NC(=S)N(CCCN2CCCC2)Cc2cccn2Cc2ccc(Cl)cc2)c1 39.8 µM [inhibitor, partial curve], CC1=C(C(=O)Nc2cccc([N+](=O)[O-])c2)C2(CCC(C)CC2)OC1=O (stereo not given) 10 µM [inhibitor, full curve, poor fit], COc1cc(/C=C2/SC(=S)N(CC3CCCO3)C2=O)ccc1O (stereo not given) 14.1 µM [inhibitor, partial curve, poor fit], Cc1ccc2nc(-c3ccncc3)cc(C(=O)NCCc3ccc(F)cc3)c2c1 56.2 µM [inhibitor, partial curve], O=C(O)c1ccc(CSc2nc(-c3ccc(Cl)cc3)cc(C(F)(F)F)n2)cc1 89.1 µM [inhibitor, single point], O=C(NCCc1c[nH]c2ccccc12)C1CCN(Cc2ccc(Br)cc2)CC1 39.8 µM [inhibitor, full curve], COc1cccc(N=c2oc3ccc(OC)cc3cc2-c2nc3ccccc3[nH]2)c1 35.5 µM [inhibitor, partial curve], Cc1ccccc1CC1(CO)CCCN(Cc2nc(-c3cccs3)oc2C)C1 (stereo not given) 56.2 µM [inhibitor, partial curve, poor fit], CCOC(=O)NC1(NCC(C)C)Oc2ccccc2O1 22.4 µM [inhibitor, partial curve], COC(=O)c1ccccc1NC(=O)Cn1c(CCC(=O)O)ccc1-c1ccc(C)cc1 79.4 µM [inhibitor, partial curve], O=C(CSc1nnc(CNc2ccc(F)cc2)o1)N1CCCc2ccccc21 39.8 µM [inhibitor, single point], CC1=CS(=O)(=O)CC1SC(=S)N(C)C1CCS(=O)(=O)C1 (stereo not given) 3.55 µM [inhibitor, single point], Cc1cc(N2CCC(C)CC2)nc(-n2nc(C)cc2C)n1 89.1 µM [inhibitor, partial curve], CC1CCN(CC(O)CN2c3ccccc3Sc3ccccc32)CC1 (stereo not given) 50.1 µM [inhibitor, partial curve], O=[N+]([O-])c1ccccc1/C=C/C=N/Nc1nc(N2CCCCC2)nc(N2CCCCC2)n1 25.1 µM [inhibitor, single point], COc1ccc(C2Oc3ccccc3C(=O)N2Cc2ccccc2)cc1COc1ccc(NC(C)=O)cc1 (stereo not given) 79.4 µM [inhibitor, partial curve], O=C(/C=C/c1ccc(Cl)cc1)N1CCN(c2ccccc2[N+](=O)[O-])CC1 22.4 µM [inhibitor, full curve], COc1ccc2nc(C)cc(Nc3ccc(N4CCOCC4)cc3)c2c1 44.7 µM [inhibitor, partial curve], CC/C(=N/Nc1ccc(Cl)cc1)c1cnnc(SC)n1 89.1 µM [inhibitor, partial curve], O=C(CSc1ccc(-c2nc3ccccc3[nH]2)cn1)N1CCN(C(=O)c2ccco2)CC1 50.1 µM [inhibitor, partial curve]

Potency, active:
CSCCC(NC(=O)c1ccc(=O)n(C)n1)c1nc2ccccc2[nH]1 (stereo not given) 89.1 µM, COc1cc(/C=N/N2C(=O)CSC2=S)cc(Br)c1O 44.7 µM, COc1ccccc1OCC#CCn1ccnc1 5.62 µM, CCn1nnc(C(=O)O)c1C(=O)O 20 µM, Oc1ccc(-c2csc(Nc3cccc4ccccc34)n2)cc1O 39.8 µM, COc1ccc(-c2ccc(N(C)C)cc2)cc1[C@H]1[C@@H]2C=CCC[C@@]2(C)C(=O)N1Cc1ccccc1 14.1 µM, O=C(O)c1cnccn1 25.1 µM, COc1ccc(C2CC(=O)N3CN(Cc4ccco4)CSC3=C2C#N)cc1 (stereo not given) 7.08 µM

Potency, inactive:
CCOc1ccc(S(=O)(=O)N2CCN(C(=O)c3cc4ccccc4o3)CC2)cc1, O=C(CSc1nc2ccccc2[nH]1)N/N=C/c1ccco1, Cc1nc2cc(-c3cccs3)nn2c(NCC(C)(C)CN(C)C)c1C, CCN(C(=O)Cn1c(=O)n(Cc2ccc3c(c2)OCO3)c(=O)c2ccc(C(=O)NC3CCCCC3)cc21)c1cccc(C)c1, O=C(COC(=O)COc1ccccc1Cc1ccccc1)Nc1cccnc1Cl, CC(=C/c1ccccc1)/C=N/NC(=O)c1ccc2nc[nH]c2c1, Cc1cc(NC(=O)CSc2[nH]c(=O)cc(C(F)(F)F)c2C#N)no1, Cc1ccc(NC(=O)COCC(=O)Nc2ccc(C)cc2)cc1, C=CCc1ccccc1OCCn1ccnc1, COc1ccc(-n2ncc3c(=O)n(CC(=O)N4c5ccccc5CC4C)cnc32)cc1 (stereo not given), COc1cc(C2c3c(oc4ccccc4c3=O)C(=O)N2Cc2ccc(C)cc2)ccc1O (stereo not given), CC1CCN(CCCNC(=O)CN2C(=O)CSc3ccc(S(=O)(=O)N4CCOCC4)cc32)CC1, COc1ccccc1OCCNC(=O)CSC(=S)N1CCCC1, Cc1ccc(N(C)C(=O)C2CCN(S(=O)(=O)c3cn(C)cn3)CC2)cc1, CCn1c(=O)c2cc(C(=O)NCCc3ccc(Cl)cc3)sc2c2ccccc21, O=C(Nc1ccc2oc(-c3ccc4ccccc4c3)nc2c1)c1cc(Cl)ccc1Cl, COc1cc(NC(=O)CN2C(=O)C(=O)N(C3CCCC3)C2=O)cc(OC)c1, O=C(c1cc(-c2ccncc2)nc2ccccc12)N1CCN(c2ccccc2O)CC1, CCc1ccccc1N(C(=O)CCC(=O)Nc1cc(C)on1)C(C(=O)NC1CCCC1)c1ccco1 (stereo not given), O=C(COC(=O)c1ccc(S(=O)(=O)C(F)F)cc1)NC(=O)NC1CCCCC1, CN(C)c1ccc(CNC(=O)C2CCN(S(=O)(=O)c3ccc4[nH]c(=O)ccc4c3)CC2)cc1, CC(C)C(=O)Nc1nnc(SCc2cc(=O)n3ccccc3n2)s1, CCOC(=O)c1ccc(N2C(=O)CC(Sc3ncccn3)C2=O)cc1 (stereo not given), Cc1cc(C)c2oc(-c3cccc(NC(=O)COc4ccccc4Cl)c3C)nc2c1, Cc1cccc(Nc2nc3c(S(=O)(=O)c4ccc(Br)cc4)nnn3c3ccsc23)c1C, CCc1ccc(C2C(C#N)=C(N)SC(N)=C2C#N)s1, CCCOC(=O)c1ccc(NC(=O)c2ccccc2[N+](=O)[O-])cc1, CC1CCCCC1NC(=O)CNC(=O)c1cccs1 (stereo not given), CN(C(=O)c1cccc(NC(=O)Cc2cccc(NC(=O)C3CCCN(C(=O)C4CCC4)C3)c2)c1)C1CCC1 (stereo not given), O=C1CCCCC1Nc1ccc2ccccc2c1 (stereo not given), COC(=O)c1ccccc1NC(=O)Cn1c(=O)n(CCCC(=O)NCc2ccccc2Cl)c(=O)c2ccccc21
